Assay results from the supplement of paper PMC5499739.
Over roughly 16,000 sequences, “Z-score” has its median near -0.37; the highest 2% begin near 3.1. The list shows a part of the results.

What follows are sequences tested on RBM10 RRM1-ZnF-RRM2 (GST-tagged construct) (assay: RNAcompete 7-mer binding Z-score; higher = stronger binding preference).
Experimental: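 RNAcompete: 20 pmol GST-tagged RBM10 RNA-binding constructs were incubated with a designed RNA pool of about 241,000 sequences up to 41 nt (1.5 nmol) on glutathione beads for 30 min at 4 °C and washed. Bound RNAs were identified by microarray hybridisation. Each RNA 7-mer is scored by a one-sided Z-score of its enrichment, computed over probes that contain the 7-mer within longer pool sequences.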

Sequence	RNAcompete 7-mer binding Z-score
CGAGCGA	0.723
ACUUAGC	-0.803
UUACUGA	-0.566
AGUUCUA	-0.694
UCUGGCC	-0.621
UGCACAA	-0.457
ACGCGUC	-0.282
CUGGAGU	0.538
AUCCCGU	-0.653
GAGCCUU	-0.887
UUUCGAU	-0.664
GCUGAAU	-0.238
UGACCAC	-0.613
UUGCCGC	-0.766
ACGGCUU	-0.435
AGUAAAG	0.793
GGCAUGG	2.23
AAGAGCU	-0.0853
UGGCCGA	0.151
CCGCGCA	-0.497
GGCACCC	-0.282
GUCGCGG	0.687
CAUGCCA	-0.646
AAUAAUA	-0.384
CCAAACA	-0.617

Sequence	RNAcompete 7-mer binding Z-score
GUUCGCA	-0.613
CCACAUU	-0.803
UGUUAAG	-0.0743
CUCGGGC	-0.322
CUUGGCG	-0.326
CGUGGUC	0.13
CAAAGCA	-0.0816
ACAAGGC	1.3
CCUUCUC	-0.777
UUAACCU	-0.752
CUCCAAG	-0.486
UUUCUGU	-0.65
GUUACAU	-0.0598
GACUCUG	-0.865
UUUUUCA	-0.522
GGAAGUG	2.59
AAUAUCC	-0.763
CUUGUCC	-0.865
UCCCGCC	-0.748
ACACUCC	-0.795
UUAAGGA	0.982
UUCCCGU	-0.694
GUGGAUC	0.949
CACUUUG	-0.887
CAAGCAU	-0.402

Sequence	RNAcompete 7-mer binding Z-score
GGGGAAU	3.13
CGACAUC	-0.617
CUCUAUC	-0.748
CUACUUA	-0.664
GAUGGUU	1.68
GAGGCCC	-0.362
ACCGCAG	-0.519
AACUAUA	-0.562
UGUUUGC	-0.588
GGACUGG	1.64
UUGACAG	0.217
AAGUGUU	0.0969
CGUGAGA	0.308
CAUGGAG	1.7
GUAGCGU	0.206
CCUUCCU	-0.93
AGGAGAA	2.16
GCCGCCC	-0.668
UAAGACA	-0.114
ACCACUC	-0.69
CCUUCCG	-0.755
UAUGCGC	-0.537
AGAUCUU	-0.755
GGUCAUC	0.0349
AACUCGC	-0.887

Sequence	RNAcompete 7-mer binding Z-score
AACUAAA	-0.413
GGUCGAA	0.782
UUCAAAG	-0.213
UUAUGCU	-0.832
ACCCCAG	-0.639
AGGAGUA	1.83
UCGUGUC	-0.442
AUUUCCA	-0.697
CGACAAC	-0.449
AGGUGGA	3
CAAUAAC	-0.479
AACCCGC	-0.832
CUGGUCA	-0.555
AUUCAUU	-0.468
AAAAUUU	-0.544
CUAGCCU	-0.89
UAUAUUU	-0.712
UAAGCAC	-0.439
CGCGAUC	-0.712
CCUCACA	-0.752
UUUGCCA	-0.697
AAAUCUU	-0.708
CCGCAGG	-0.0452
AGGGCUU	0.137
UAACCGA	-0.686

Sequence	RNAcompete 7-mer binding Z-score
GACUAAC	-0.526
GUGGGCA	3.48
CUUAAGG	0.141
AUCCCGC	-0.81
UCAACGG	0.388
CUAGACG	-0.395
AUCUUAA	-0.788
UUUCAGG	0.0277
ACUAUCG	-0.551
UCUGAUU	-0.872
UCUUCCC	-0.759
CGUUGAC	-0.362
GUUAUUA	-0.22
CUCGUGC	-0.73
GCAGAAC	0.155
CAUGUAC	-0.457
UGAAGGG	3.56
UGUUUAU	-0.588
CACGGUA	0.264
AACGCCG	-0.559
CGGCUAU	-0.599
UCCGCGU	-0.468
GCACGCA	-0.227
CAAGGUU	1.34
AAAUGAC	-0.227

Sequence	RNAcompete 7-mer binding Z-score
AAGUAAU	-0.162
AACUACA	-0.333
GAUCCCU	-0.919
UCACCCA	-0.883
ACCACGG	0.363
CUUCCCC	-0.646
AAAAUGG	2.68
UUUGUAU	-0.734
CCGUGAU	-0.362
AAAAUUA	-0.286
AUAAGGU	1.74
CCCUUUU	-1.01
GAAAUUA	-0.413
GCUCCAU	-0.734
AUUCUCU	-0.752
GUGUAUC	-0.122
CUUUAUA	-0.752
CGGGUAU	1.39
GGGGUAA	3.5
AUAUACG	-0.0889
GUAUCGA	-0.129
GACUUUC	-0.89
CUAGAUA	-0.61
ACGCGAU	-0.358
GUAUGUC	-0.195

Sequence	RNAcompete 7-mer binding Z-score
UUUCGUU	-0.584
CCCCGAU	-0.577
GAAAGUU	-0.0561
GCCUACG	-0.511
CGUUCAA	-0.486
GCGCUUA	-0.482
CGGUUGC	0.166
AUAAUGG	1.84
UACGCGG	0.428
GGGGACA	2.72
CGCAUUA	-0.617
UCUCCGG	-0.588
UAAAUCA	-0.246
GCUCCUU	-0.73
GGCCGUU	-0.588
UGACACC	-0.566
UUAGACU	-0.628
GGGCGCG	2.1
GAUAUGU	0.0969
GACGGGA	2.3
CGCGGAG	0.876
AGUCAUU	-0.515
UUCGACC	-0.785
AGAAUAU	-0.158
GACCGCA	-0.843

Sequence	RNAcompete 7-mer binding Z-score
CUCCGUG	-0.606
UACAUGA	-0.0853
CGACGGU	0.261
CCUGACC	-0.876
AUCGCAC	-0.566
GACCCGG	-0.559
GUAAUCG	0.0422
GUUUUCU	-0.559
GAAGUCC	-0.5
CUUCUGU	-0.85
GAAUCAU	-0.0634
UGAUCAA	-0.435
CAUACAU	-0.519
UUCCGAU	-0.77
UACACUA	-0.442
CGAUUAU	-0.65
GGUCGAC	0.385
CGUAGCA	-0.213
CAUGAUG	-0.0561
UCGAACA	-0.278
UGGAUUA	0.975
GCCUUCU	-0.697
GUAGGUA	2.25
AUCGUCU	-0.712
CUCGGUA	-0.377

Sequence	RNAcompete 7-mer binding Z-score
GAGCUGA	0.213
GAUCUCC	-0.897
UCCGGUC	-0.668
GCGCCAU	-0.522
CGAUGUA	0.0641
UCACAUU	-0.675
CCUUUAU	-0.941
GCUAGGA	1.05
GUUCAAG	-0.0124
CGAGAGC	-0.136
GCUCCCC	-0.464
UCCCGAU	-0.85
CCCUCCC	-0.457
GGCACUC	-0.216
UGUACCC	-0.581
UUUGACG	-0.551
GUAUCCU	-0.694
CGCAGAG	0.436
UACCGGA	0.119
UAGCGAC	0.162
AGCCCCG	-0.679
CGUCAGG	0.326
UGCGUAG	0.326
UACGGGU	2.02
UUAGUCC	-0.686

Sequence	RNAcompete 7-mer binding Z-score
CUCUUAG	-0.661
AUCCCCC	-0.435
UGAGAAG	1.33
GCAUUCA	-0.449
AAAGUUU	-0.322
GAAACUA	-0.337
GGCACAU	0.213
UUCGGCA	-0.493
GCAUCGG	0.275
GACGCUC	-0.774
CUACCCA	-0.948
CCGUGGG	1.89
AAGGGAC	3.43
UAACUUA	-0.475
CGUGCUU	-0.675
GGACGGG	4.18
GUGGGUG	3.76
ACUUCGG	-0.402
GUCCAAC	-0.657
UCCUCCG	-0.825
GAUGUCA	-0.253
GCACUGA	-0.202
UGGGUGC	2.74
CGGGACC	0.858
CGUUUCC	-0.817

Sequence	RNAcompete 7-mer binding Z-score
GUUCAUG	-0.315
UGACAAC	-0.384
CGGUUGA	0.876
UGUAGCA	-0.395
AUUCCGG	-0.559
GCGGCCA	-0.118
UUACCGU	-0.606
UCCCGUG	-0.351
UGAACAG	0.468
AUAGGAC	1.32
UAAUGUC	-0.42
UCAUCUC	-0.723
GCCUUCC	-0.795
CAUACCU	-0.748
UUCAUUG	-0.38
GGCGGGG	3.64
CCUAAGA	-0.541
UCGUCAG	-0.216
UAGUUGG	1.23
CACUACC	-0.795
UAGGUGA	2.39
CCCAGAG	-0.0998
CCAUUGA	-0.694
AACUAAG	-0.00512
UGUGUAG	0.738

Sequence	RNAcompete 7-mer binding Z-score
GGUGGAA	3.71
AUCCCAC	-0.639
CCGGCGG	0.388
CUAUCCC	-0.905
GUGUUGU	0.268
AUCAGCA	-0.395
GUAACGU	0.323
UCCACAG	-0.453
CCGGAGG	0.876
UCGCCGC	-0.752
AGCAAGA	0.17
GAGAUCC	-0.391
GGGGGUG	3.43
AGAUUAA	-0.0925
AUCCAGC	-0.69
AGGUUAA	1.24
CGGUACC	-0.187
CAGUUGC	-0.49
CAGCCUG	-0.577
UCUAAAC	-0.708
GUCGCUG	0.0495
GGAAGGA	4.61
AGAGAGG	1.58
AUCGUCC	-0.766
UACUAUG	-0.417

Sequence	RNAcompete 7-mer binding Z-score
ACAACUC	-0.744
AAAUGCU	-0.577
GCAAUUA	-0.344
GUGCACA	0.0167
UCUGGUU	-0.388
GUCCGAA	-0.606
AUUGAGG	1.64
GGUCGGC	0.854
UACAUAG	-0.0124
CAAAACA	-0.351
ACACACC	-0.475
AGACCCC	-1.09
GUAAAAU	0.0349
UACGAUG	0.25
CUCUUUA	-0.887
UGUGCGA	0.21
ACGCAGG	0.625
GCAUGAU	-0.191
CUCGCGU	-0.635
GGACUUU	-0.304
UCCCCGA	-0.562
AUGAGGG	4.32
AGAGCAC	-0.763
UUCGGUA	-0.144
AGCCAGC	-0.358

Sequence	RNAcompete 7-mer binding Z-score
AUUAGGC	0.439
UAUCUGG	-0.388
GGAGUCC	0.749
CGGGUGU	1.83
UAAACUU	-0.628
GCAUACU	-0.599
GACCGAG	-0.158
CCCCUCU	-0.602
AAUCCUA	-0.843
CCUAUGG	-0.442
CGUGAGU	0.188
GCAUUGG	0.782
ACGACCG	-0.504
UCAUCAA	-0.635
UAUAACU	-0.672
AUGCAUU	-0.602
CGUUCGA	-0.588
CGCUAAC	-0.726
GUAACCC	-0.176
GUGGUCC	0.0677
CUGCGCU	-0.806
UCCAGUA	-0.391
CAGACAC	-0.289
AAUCCGA	-0.417
GGCUCUG	-0.475

Sequence	RNAcompete 7-mer binding Z-score
GCGCAGG	1.59
GAGUCUU	-0.286
CUGGCUG	-0.0743
AUAUCGU	-0.581
UCAAGAG	-0.0306
AAUAUUA	-0.293
ACUCGGA	-0.224
UCACGCG	-0.296
CUGUAGU	-0.61
GGGUGAC	2.92
CAGUCUG	-0.686
AACUGAG	0.177
CCAUGCA	-0.69
CCAUCUA	-0.854
UGAGAAU	0.133
GACGCCA	-0.748
CGCCACG	-0.318
